Source: the BET-seq Pho4 binding data (Le et al. 2018)
The other results are listed elsewhere or left out. The energies were worked out here from pooled read counts, against the library average; single values are noisy.

Target: T1, Pho4 (S. cerevisiae) (UniProt P07270)
T1 sequence: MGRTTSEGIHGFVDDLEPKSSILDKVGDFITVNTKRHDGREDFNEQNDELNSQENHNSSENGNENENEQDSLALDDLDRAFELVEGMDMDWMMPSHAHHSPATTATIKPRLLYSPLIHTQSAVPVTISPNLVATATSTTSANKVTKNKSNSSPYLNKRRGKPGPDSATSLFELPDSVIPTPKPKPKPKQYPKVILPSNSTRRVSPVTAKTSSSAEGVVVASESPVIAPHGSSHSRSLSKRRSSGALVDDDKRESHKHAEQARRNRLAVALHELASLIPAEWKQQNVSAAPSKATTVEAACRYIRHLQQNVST
Assay: relative binding free energy (BET-seq); higher = weaker binding
Details: reference: library average

| Sequence | relative binding free energy [kcal/mol] |
| --- | --- |
| TATTCCACGTGTGTGG | 0.03 |
| CATAGCACGTGTGTTT | 0.01 |
| TATTACACGTGTGTAA | 0.01 |
| CATGTCACGTGAGTTT | 0.36 |
| AAAGGCACGTGGGGCT | -0.33 |
| ATAGTCACGTGGGAGA | -0.11 |
| TCGTGCACGTGCGGGA | -0.17 |
| TTGGACACGTGCTAGT | 0.08 |
| GCTTTCACGTGCGTGG | 0.03 |
| TGCGTCACGTGGTAGG | -0.08 |
| TCTTTCACGTGTAGTA | 0.27 |
| TTCGGCACGTGGGCGT | -0.21 |
| CAGGGCACGTGTGTTC | -0.05 |
| AGTGACACGTGATGAG | 0.04 |
| GAACGCACGTGGTGTT | -0.08 |
| TATTACACGTGGATGG | 0.12 |
| TTCAGCACGTGGGCGT | -0.27 |
| ATAAGCACGTGGGGTA | -0.16 |
| GTCTGCACGTGTATTA | 0.03 |
| TTCGTCACGTGTTTTC | 0.11 |
| GCTATCACGTGGGTGG | -0.03 |
| GATATCACGTGGTGGC | 0.23 |
| AATGGCACGTGTGTGG | -0.04 |

| Sequence | relative binding free energy [kcal/mol] |
| --- | --- |
| AGCGTCACGTGGGGTC | -0.03 |
| TAATTCACGTGTTCTT | 0.28 |
| TAATTCACGTGTGCAT | 0.24 |
| TGTCGCACGTGTAGTG | -0.09 |
| TCATGCACGTGTTAGG | -0.07 |
| TGGTACACGTGAGTTT | 0.34 |
| AGATTCACGTGCAGGT | 0.09 |
| TAGGACACGTGTCTTG | 0.06 |
| ATGTTCACGTGTATTT | 0.21 |
| TGTGGCACGTGCCGTG | -0.11 |
| TATAACACGTGGTAAG | -0.09 |
| TGGATCACGTGCTGAT | 0.16 |
| AAGGGCACGTGTTATG | 0.02 |
| TCAGACACGTGTTGGT | 0.08 |
| ACTGGCACGTGTGTAG | -0.25 |
| TGGTCCACGTGTGGCG | 0.04 |
| TGAGGCACGTGAATGA | 0.25 |
| AGTATCACGTGTCATG | 0.12 |
| GTGGGCACGTGCGTCT | -0.08 |
| CTATGCACGTGGCTGT | -0.11 |
| GTGTCCACGTGTTCTT | 0.18 |
| AGAATCACGTGGGGTT | 0.13 |
| GGTGTCACGTGGCGGG | 0.24 |

| Sequence | relative binding free energy [kcal/mol] |
| --- | --- |
| GATATCACGTGGGATG | -0.02 |
| GATTACACGTGTATTA | 0.22 |
| GTTCACACGTGCTGGT | 0.11 |
| TGAGGCACGTGAGGGA | 0.23 |
| ATGATCACGTGGTTAT | 0.22 |
| TATTGCACGTGTCGAA | 0.07 |
| TATAACACGTGTGGCT | -0.06 |
| ATAATCACGTGTATTA | 0.18 |
| AGGGACACGTGGAAAG | 0.19 |
| GGTTGCACGTGTTGGG | 0.06 |
| GTGGGCACGTGGTATT | -0.08 |
| TGGTACACGTGAGCGT | 0.17 |
| GTGGACACGTGTTTAT | 0.08 |
| GGGTGCACGTGAGCTA | 0.16 |
| GGTGGCACGTGTCTGA | -0.08 |
| AGTTTCACGTGACCGG | 0.51 |
| CTGCGCACGTGGTGAG | -0.14 |
| GGTGACACGTGGGCTG | -0.09 |
| TAGAGCACGTGTGTGG | -0.03 |
| CAGTTCACGTGTGGGG | 0.29 |
| TATATCACGTGGTACA | 0.18 |
| AGGTTCACGTGGACGT | 0.09 |
| TACGTCACGTGGTGAT | 0.03 |

| Sequence | relative binding free energy [kcal/mol] |
| --- | --- |
| AAATTCACGTGAATGA | 0.43 |
| AGTAGCACGTGTAGAA | -0.02 |
| AGTTGCACGTGGCGTA | -0.08 |
| TAATTCACGTGCTTTG | 0.19 |
| ATGAGCACGTGTGGTA | -0.11 |
| GGTTGCACGTGTATTT | 0.16 |
| AGGTGCACGTGGTCAT | -0.2 |
| TCTTGCACGTGTTGGA | 0.04 |
| TGGTTCACGTGAGAAT | 0.37 |
| ACAGTCACGTGGGAGT | -0.09 |
| GGTGTCACGTGGGGCA | 0.03 |
| AAAGGCACGTGCGGTT | -0.09 |
| AGTTCCACGTGTAAGG | 0.19 |
| CATTTCACGTGTTGTG | 0.21 |
| TCTGTCACGTGTAGAG | 0.1 |
| AGAAGCACGTGCGTGT | -0.23 |
| CGAGGCACGTGTTTGG | -0.08 |
| GAATTCACGTGAGTTG | 0.52 |
| TTAGTCACGTGAGAGA | 0.33 |
| GGAAGCACGTGGGTCG | -0.26 |
| TGAATCACGTGGTTCT | 0.15 |
| GGTAACACGTGATGAT | 0.23 |
| GAGCGCACGTGGAGGG | -0.15 |

| Sequence | relative binding free energy [kcal/mol] |
| --- | --- |
| ATCGGCACGTGTTGGA | -0.04 |
| TATGGCACGTGAAATT | 0.26 |
| TTGTCCACGTGGTGGG | -0.03 |
| ATGGTCACGTGGGGAC | -0.02 |
| AAAAACACGTGTGGTA | 0.07 |
| AGGGACACGTGTGCAT | 0 |
| GCTGGCACGTGAGAGG | 0.08 |
| TGCTTCACGTGTTAAG | 0.21 |
| ATCGACACGTGGAAGG | 0.24 |
| CAATGCACGTGTTAGT | 0.06 |
| CACGTCACGTGGCGGG | -0.01 |
| GGAGGCACGTGCGCTG | -0.12 |
| ACTTTCACGTGTGGCG | 0.22 |
| GTGTGCACGTGAGAGA | 0.21 |
| GCTGGCACGTGGGGTC | -0.24 |
| CGGGGCACGTGGTTGC | -0.22 |
| GGGCGCACGTGTTGAA | -0.04 |
| GTGAGCACGTGTCTTG | -0.02 |
| AGACGCACGTGGAGGT | -0.11 |
| GAGATCACGTGAGAGG | 0.31 |
| TCTTGCACGTGCGTTT | -0.05 |
| GTAATCACGTGGTGTG | 0.11 |
| TATGACACGTGGTGGA | -0.04 |
